≈ marks a conversion by molar mass, not a printed value.
Assays:
Assay in all cases: ≥ marks a high value that may be exact or a test limit, other limits are often not marked
Aerococcus viridans = system: Aerococcus viridans
[1] = system: Serratia marcescens NCTC 1377
[2] = system: Bacillus subtilis NCIB 6276
[3] = system: Pseudomonas aeruginosa NCTC 10662
[4] = system: Escherichia coli K-12 D31
Micrococcus luteus = system: Micrococcus luteus
[5] = system: Staphylococcus aureus NCTC 8178
Bacillus megaterium = system: Bacillus megaterium
[6] = system: Klebsiella pneumoniae NCTC 8805
[7] = system: Candida albicans NCPF 2082
[8] = system: Enterobacter cloacae NCTC 10005
[9] = system: Bacillus megaterium NCIB 9376
[10] = system: Micrococcus luteus NCTC 2665
[11] = system: Enterobacter cloacae beta-12
[12] = system: Helicobacter pylori ATCC 43504
[13] = system: Escherichia coli DH5alpha
[14] = system: Staphylococcus aureus NBRC 13276
[15] = system: Pseudomonas aeruginosa NBRC 13275
[16] = system: Pseudomonas aeruginosa PA330
[17] = system: Pseudomonas aeruginosa PA380
[18] = system: Pseudomonas aeruginosa PAO1
Escherichia coli K-12 = system: Escherichia coli K-12
[19] = system: Pseudomonas aeruginosa PA214

CC[C@H](C)[C@@H]1NC(=O)[C@@H]2CSSC[C@@H](C(=O)N[C@@H](CCCN=C(N)N)C(=O)N[C@@H](CC(N)=O)C(=O)O)NC(=O)[C@H](C(C)C)NC(=O)[C@@H]3CSSC[C@H](NC(=O)[C@H](C)NC(=O)[C@H](CO)NC(=O)[C@H](CC(=O)O)NC(=O)CNC(=O)[C@H](C(C)C)NC(=O)CNC(=O)[C@H](Cc4ccccc4)NC(=O)CNC(=O)[C@H](CO)NC(=O)[C@H](CC(C)C)NC(=O)[C@H](CC(C)C)NC(=O)[C@H](CC(=O)O)NC(=O)[C@@H](NC(=O)[C@@H](NC(=O)[C@H](C)N)[C@@H](C)O)CSSC[C@H](NC(=O)[C@H](Cc4ccc(O)cc4)NC(=O)CNC(=O)CNC(=O)[C@H](CCCN=C(N)N)NC(=O)[C@H](CC(N)=O)NC(=O)CNC(=O)[C@H](CCCN=C(N)N)NC(=O)[C@H](C)NC1=O)C(=O)N[C@@H](CC(N)=O)C(=O)N[C@@H](CO)C(=O)N[C@@H](CCCCN)C(=O)N[C@@H](CCCCN)C(=O)N[C@@H](C(C)C)C(=O)N3)C(=O)N[C@@H](C)C(=O)N[C@@H](C)C(=O)N[C@@H](Cc1cnc[nH]1)C(=O)N2 [ATCDLLSGFGVGDSACAAHCIARGNRGGYCNSKKVCVCRN]
MIC (Aerococcus viridans): 0.849 µM (≈ 3.46 µg/mL) | MIC [1]: 12.3 µM (≈ 49.9 µg/mL) | MIC [2]: 8.14 µM (≈ 33.2 µg/mL) | MIC [3]: 12.3 µM (≈ 49.9 µg/mL) | MIC [4]: ≥ 49 µM | MIC (Micrococcus luteus): 0.849 µM (≈ 3.46 µg/mL) | MIC [5]: 14.2 µM (≈ 57.9 µg/mL) | MIC (Bacillus megaterium): 0.849 µM (≈ 3.46 µg/mL) | MIC [6]: 12.3 µM (≈ 49.9 µg/mL) | MIC [7]: 12.3 µM (≈ 49.9 µg/mL) | MIC [8]: 12.3 µM (≈ 49.9 µg/mL) | MIC [9]: 2.35 µM (≈ 9.59 µg/mL) | MIC [10]: 2.99 µM (≈ 12.2 µg/mL) | MIC [11]: 1.7 µM (≈ 6.91 µg/mL)

CC[C@H](C)[C@H](NC(=O)[C@H](C)NC(=O)[C@H](CO)NC(=O)[C@H](CC(C)C)NC(=O)[C@@H](N)Cc1ccccc1)C(=O)N[C@H](C(=O)NCC(=O)N[C@@H](CCSC)C(=O)N[C@@H](CC(C)C)C(=O)N[C@@H](C)C(=O)N[C@@H](CCCCN)C(=O)N[C@@H](CC(C)C)C(=O)N[C@@H](Cc1ccccc1)C(N)=O)C(C)C [FLSAIVGMLAKLF]
MIC [12]: ≥ 50 µM

CC[C@H](C)[C@H](NC(=O)CNC(C)=O)C(=O)NCC(=O)N[C@@H](CCCCN)C(=O)N[C@@H](Cc1ccccc1)C(=O)N[C@@H](CC(C)C)C(=O)N[C@@H](Cc1cnc[nH]1)C(=O)N[C@@H](CO)C(=O)N[C@@H](C)C(=O)N[C@@H](CCCCN)C(=O)N[C@@H](CCCCN)C(=O)N[C@@H](Cc1ccccc1)C(N)=O [GIGKFLHSAKKF]
MIC [13]: ≥ 200 µM | MIC [14]: ≥ 400 µM | MIC [15]: ≥ 200 µM

CC(C)C[C@H](NC(=O)[C@H](C)NC(=O)[C@H](CCCCN)NC(=O)[C@H](Cc1ccccc1)NC(=O)[C@H](CC(C)C)NC(=O)[C@H](CCCCN)NC(=O)[C@H](C)NC(=O)[C@H](Cc1c[nH]c2ccccc12)NC(=O)[C@H](C)NC(=O)[C@H](CCCCN)NC(=O)[C@H](CC(C)C)NC(=O)[C@H](Cc1ccccc1)NC(=O)[C@H](C)NC(=O)[C@H](CCCCN)NC(=O)[C@H](CC(C)C)NC(=O)[C@H](CCCCN)NC(=O)[C@@H](N)CCCCN)C(N)=O [KKLKAFLKAWAKLFKAL]
MIC [16]: 6.3 µM (≈ 12.6 µg/mL) | MIC [17]: 1.5 µM (≈ 3.01 µg/mL) | MIC [18]: 3.1 µM (≈ 6.21 µg/mL) | MIC (Escherichia coli K-12): 1.6 µM (≈ 3.21 µg/mL) | MIC [19]: 3.1 µM (≈ 6.21 µg/mL)
